What all share (experiment): co-IP
Test [1] addresses HPV8 FLAG/HA-E6 (lentiviral, stably expressed in human keratinocytes) (human papillomavirus 8 (HPV8)) (UniProt P06428).
The target in test [2] is FLAG/HA-tagged wild type HPV8 E6 (pCMV BamNeo, U2OS) (human papillomavirus 8 (HPV8)) (UniProt P06428).
In test [3] the target is FLAG-tagged SMAD2 (UniProt Q15796).
The target of test [4] is FLAG-tagged SMAD3 (UniProt P84022).

No constants are given. Whether binding was seen depends on the method and setting. Binding seen in cells or lysates may run through a third protein. Some entries that bind do so weakly or less than the wild type.

Consider MAML1 (from UniProt Q92585 1-1016), for which the binding result in test [1] and in test [2] was “binds” each time.
On to “untagged HPV8 E6 (U2OS) (from UniProt P06428 1-155)”, for which the binding result in test [3] and in test [4] was “binds” throughout.
In the case of SMAD3 (from UniProt P84022 1-425), the binding result in test [1] and in test [2] was “binds” each time.
Take EP300 (from UniProt Q09472 1-2414): the binding entry in test [1] and in test [2] was “binds” throughout.
Take SMAD4 (from UniProt Q13485 1-552): the binding entry in test [1] is reported as “no binding”.
As for SMAD2 (from UniProt Q15796 1-467), the binding result in test [1] and in test [2] was “binds” throughout.

These data come from publication PMC5287491.
